The chains are these.
B1: LINE1-mini (parent)
chain: GGCAGAGCUCAACACAGCGUGGCAAAGUGGCUGUGGCUAGACUGCC

The source gives no read counts; variants with many changes may rest on few reads.

In this data set the parent is B1. The experiment in a line: self-cleavage, relative activity (ratio to wild type); higher = more cleavage; in vitro, sequencing; the parent is a self-cleaving ribozyme.
Take C15A G21A U34A C46G: the self-cleavage is 0.08.
Under C15U A16G G36C stands 0.1.
The figure for A14U G30U C31A is 0.04.
Turning to C15G G22U U38C G40U, the self-cleavage was found to be 0.01.
Under C15U C23U U28A stands 0.43; under C15U A26G C31A, 0.05; under C15A U32G C46A, 0.02.
C15U U32A G36A: the self-cleavage was 0.03.
Under C15A G17U C31A stands 0.11; under C15G C18G C31U C42A, 0.
As to C15U A26C U38A, the self-cleavage was found to be 0.2.
For the variant C15G A16G G17U U28A G35A, the self-cleavage amounted to 0.02.
The figure for C15A C31A U34G is 0.01; for C15U C31G G33A U34G G36A G44A it is 0.06.
Under C15G G17C G21C C42U stands 0.01; under C15G A24G C37G, 0.02.
Under A16C C18A C23A G33C C46A stands 0.01; under C15U U43C C45A, 0.
For A14U C31A G33A, the self-cleavage came to 0.01.
The figure for C15A G21U G44A is 0; for C15A A24C C31G U34G it is 0.02; for C15A C37A C42A it is 0.01.
The figure for C15A G17C G36C G40C A41U C46A is 0; for C15A A16C G27A G36A it is 0.22; for C15U G17C A41C it is 0.01.
Consider C15A G19U U38C, for which the self-cleavage was found to be 0.06.
The figure for C15G A24C C37G C46A is 0.03.
Take C15G G33A A41C: the self-cleavage came out at 0.04.
Consider A14U C15G G21U G29U C46A, for which the self-cleavage was determined as 0.
Under C15G A26U U34A C45A stands 0.03.
As for C15A G33C G36C, the self-cleavage was 0.03.
The figure for C15U A24G G40U is 0.02.
The figure for C15A C37U A39G is 0.02; for C15A G21C G29U U34G A39C it is 0.01.
The figure for C15A G36U A41C C46G is 0.03.
On to A14U G29U C31G G33A U34C G44C, for which the self-cleavage was found to be 0.02.
For A14U G22C A39U, the self-cleavage worked out at 0.12.
As to A14U C31A G35C, the self-cleavage is 0.06.
On to C15U C23A A25C U32A C46A, for which the self-cleavage came out at 0.03.
In the case of C15U U38C U43A, the self-cleavage was found to be 0.03.
On to C15U U34G G44A, for which the self-cleavage worked out at 0.03.
Under C15G C18G C46U stands 0.02; under C15G G17C A25C G40A, 0; under C15U G27A U38A, 0.28.
For the variant C15G A25U A39U, the self-cleavage amounted to 0.05.
Under A14U G17A U20A G27A C31A A41U stands 0.02; under C15A C23A U34A A41U, 0.18.
Under C15A G33C C37U stands 0.04.
Take C15A G17C G19U: the self-cleavage worked out at 0.15.
Regarding C15G C31U U32C, the self-cleavage turned out to be 0.01.
With C15G G17A C31A, the self-cleavage amounted to 0.01.
For C15A A26U C31A, the self-cleavage worked out at 0.01.
The figure for C15A A16G G21U C23U G36A is 0.09; for A14U U20G C42U it is 0.07; for C15U C37G G44U it is 0.24.
Regarding C15A A16U G27A U38G, the self-cleavage amounted to 0.03.
The figure for C15U G21U G40A is 0.14.
The figure for A16C C18U G33U is 0.07.
As to C15G G29C C42A, the self-cleavage stood at 0.
The figure for C15A G21A A24G U32C G35C is 0.02; for C15A G35A C37G G44C it is 0.01; for C15U G19U U38G it is 0.1.
As for A14U G40U C45U, the self-cleavage was found to be 0.02.
As to C15A C18U C23A G30U, the self-cleavage is 0.04.
Take C15G U20A G22U U28C G35A: the self-cleavage stood at 0.04.
Under C15U G27U G40A C42A stands 0.02; under A14U U20C U28A A39U C42A, 0.05; under C15A A39U G44U, 0.03.
Under A16C C18A A24U G33A stands 0.16; under C15U U20C G21C, 1.85.
The figure for C15G U38A C45U is 0.1; for A14U C31A A39U A41G it is 0.14.
With C15G C23A G29C, the self-cleavage was determined as 0.99.
The figure for C15G G27C C45U is 0.04; for A16C C18G C37G it is 0.05; for C15G G17A U34G it is 0.03.
The figure for A14U C18A U20C G29C is 0.06.
The figure for A14U C23A G27C G33U U34C A39G U43A C46A is 0.06; for C15G C23G G40C A41C it is 0.02; for C15G C31U U38C G44A it is 0.
In the case of A14U C18A C31A U34C, the self-cleavage was 0.05.
In the case of C15A G33U G44C, the self-cleavage is 0.06.
As for A14U C15U A25G C42A, the self-cleavage was 0.
As to A14U A39G G40U, the self-cleavage was 0.11.
For A14U G35A C42G, the self-cleavage stood at 0.
Under C15G A24U G40A stands 0.
In the case of C15A C31U G33A G40U C46A, the self-cleavage is 0.01.
Regarding A16C C31A G40U G44A, the self-cleavage came out at 0.
As for C15A G19A C37A, the self-cleavage was found to be 0.01.
The figure for C15G G21C A26U G33C U43C is 0.03; for A16C A25G G44C C46G it is 0.04; for A14U C37G U38A it is 0.
Under C15A C18G U34A G44A stands 0.02; under C15G C18U C46A, 0.23.
Consider C15A G40U U43G, for which the self-cleavage worked out at 0.06.
The figure for C15U G17A G19U A24C is 0.02; for C15A C18U U43A it is 0.09; for C15U U28G G35U U38C U43A C46A it is 0.01.
The figure for C15A G19C U20G G30U is 0.05; for C15A C18G G22U C31A it is 0.11; for C15G G22U A24U G29A U43C it is 0.02.
The figure for C15U G22U C23U A25U U34C G35C is 0.02; for A14U G17A C18U U28A G33U it is 0.03.
Take C15G C23G G40A: the self-cleavage came to 0.
On to A14U U20C A41G, for which the self-cleavage is 0.04.
Under C15G A16C C18G A26G G33C C37U stands 0.01; under C15U U20A U28C G33A G40U, 0.3; under C15U G27C G35U A39G C45G, 0.03.
C15U A24G U28C: the self-cleavage worked out at 0.74.
The figure for A16C C18U G27C is 0.14.
The figure for C15A G19U G40C is 0.02; for C15U U20G G40U it is 0.01.
Under C15G U20G G36A stands 0; under C15U G19U C31A, 0.05; under C15A U20G C23U C45U, 0.04.
For the variant C15A G17A G21U C31U U34C, the self-cleavage turned out to be 0.02.
Under C15A G17A G29A stands 0.11.
Consider C15U A25C U32C, for which the self-cleavage came out at 0.06.
The figure for C15G G29U G35A is 0.03; for C15A G21C A24U A26U C31U C45U it is 0.02; for C15U A16G G40C it is 0.01.
Under A14U C18A G19A C23A stands 0.13.
The figure for C15G C31G C37U is 0.02.
With C15A G22C G27U G36A C46G, the self-cleavage was determined as 0.06.
The figure for C15U G27U C37A G44U is 0.1; for C15U A16G C31G U32C G44U it is 0.03.
The figure for C15G G17A G19C G22U G33U is 0.1.
As to A14U G21U C45U, the self-cleavage worked out at 0.95.
Take C15G A16C G35U A41C: the self-cleavage turned out to be 0.02.
Under C15A A16G C18U U28C G29A C31U U34C G35U G40A stands 0.03; under C15U A24U G36U, 0.04.
The figure for C15A G44C C46A is 0; for C15A G19A C23G it is 0.04.
Under C15A A16C G19U G21U U32A C42A U43A stands 0.01.
Take A14U G17A G35U U43G: the self-cleavage was 0.01.
For the variant C15A A26G G30U U34A, the self-cleavage came out at 0.31.
On to C15U A25U C42A, for which the self-cleavage was determined as 0.15.
The figure for A14U U32C G33U is 0.05; for C15U C18U G19A A24C G27A G33U it is 0.25.
In the case of A16C C23U U43A C46A, the self-cleavage turned out to be 0.01.
The figure for C15U G19C A26C is 0.84.
Under C15A U20G G22C C42A stands 0.05; under C15A G35A C42G, 0.01.
As for C15U G22C G27C C31A, the self-cleavage is 0.06.
On to A16C A24C U32C U34A C37A, for which the self-cleavage came to 0.01.
The figure for C15G G30U C42A C45G is 0.02.
The figure for C15G G27U A39G C46A is 0.01; for C15A G27U C37A A41U it is 0.07.
For C15U G21A C31G U38A, the self-cleavage was 0.05.
The figure for C15A G27C G35C is 0.04; for C15G C23G U43G G44U it is 0.01; for C15U A25U G36A it is 0.11.
Under C15U G21U U32A stands 0.03; under C15A A16G G36U G40C, 0.01; under C15U G30U G35C, 0.02.
The figure for A14U U32G U38G U43A is 0.01; for C15A G29A C45G it is 0.04.
Take C15A A26C C31A C37G: the self-cleavage was found to be 0.02.
Under C15U C18U C46U stands 0.13; under A14U G17U C45A, 0.01.
The figure for C15A A39U G40U is 0.05; for C15U A26G G27U G33C it is 0.03; for C15G G40U A41G it is 0.02.
Take C15A G33A C37A U38A: the self-cleavage was 0.03.
The figure for C15G A16C U34C is 0.14; for C15U C18U C23G A26C it is 0.09; for C15U U20C G30A it is 0.13.

The record behind these values is the RNAGym collection of RNA variant scans (doi:10.7554/elife.90254).
